Results on three compounds are retold here after publication PMC6003868 (ACS chemical biology, 2018).

In experiment [1] the target is FabD (Moorena bouillonii, UniProt A0A1U7NA76). The settings on record: acceptor AprA holo-ACP (also AprI ACP).
Experiment [2] addresses AprA ΨGNAT-MT2 didomain (Moorea bouillonii PNG5-198). The experiment is described as follows: SEC. A general note: Size exclusion chromatography separates by hydrodynamic size, large species first.
Experiment [3] addresses AprA ΨGNAT-MT2 didomain C651S (Moorea bouillonii PNG5-198). The experiment is described as follows: SEC.

Turning to `CC(C)(COP(=O)(O)OP(=O)(O)OC[C@H]1O[C@@H](n2cnc3c(N)ncnc32)[C@H](O)[C@@H]1OP(=O)(O)O)[C@@H](O)C(=O)NCCC(=O)NCCSC(=O)CC(=O)O` [Mal-CoA], the “Ppant ejection mass spectrometry assay” value in experiment [1] is “Incubation of FabD with AprA holo-ACP led to rapid formation of Mal-ACP”.

The stoichiometry N is the number of molecules, sites or subunits per partner or assembly. As to “AprA ΨGNAT-MT2 didomain (domain or fragment)”, in experiment [2], the stoichiometry N came to 2.

Regarding “AprA ΨGNAT-MT2 didomain C651S (domain or fragment)”, the stoichiometry N in experiment [3] is 2.
